The values that follow come from patent US5994336A, “Method of inhibiting proliferation of cells by administering an aminosterol compound” (priority 1995, dated 1999).

This data set is described as follows: Hematological profile of L1210-inoculated mice.

For `CC(C)[C@@H](CC[C@@H](C)[C@H]1CC[C@H]2[C@@H]3[C@H](O)C[C@H]4C[C@@H](NCCCNCCCCNCCCN)CC[C@]4(C)[C@H]3CC[C@]12C)OS(=O)(=O)O` [Compound 1436], the “hematological profile” value is reported as “near normal hematocrit, with evidence of a robust granulocyte count”.
